In PubChem BioAssay AID686978 (National Center for Advancing Translational Sciences (NCATS), 2013):
Out of some 420,000 compounds screened, about 64,000 (15%) were called active. The shares of active, inactive and inconclusive entries below differ from those in the screen. Calls come from the whole dose curve; as a rule, active = well fitted inhibition curve with a large enough effect; inconclusive = small, poorly fitted or top-dose-only effect; inactive = flat fitted curve, though single readings scatter. No potency is given beside an inconclusive call; the fits are too rough.

Assay: qHTS for Inhibitors of human tyrosyl-DNA phosphodiesterase 1 (TDP1): qHTS in cells in absence of CPT; note: nearly all actives have a fitted effect of over 55% in size
Conditions: DT40 Tdp1-/- hTDP1 cells, no CPT, ATP luminescence, 48 h; activity change, negative = growth inhibition: at 46.2 µM (top of the series) unless noted
Procedure, shortened: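 Compound effects on proliferation are scored in DT40 Tdp1-/-;hTDP1 cells in the absence of CPT. ATP levels (CellTiter-Glo luminescence) are recorded after a ≥48 hr, 37 °C incubation.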
% is set by controls: 0 for no effect and ±100 for the full control effect; potency is the fitted concentration of half-maximal effect; tags give direction and shape of the fitted curve.

**Q.** For `CC(C)(C)C1CCc2c(sc(NC(=O)c3ccco3)c2C(N)=O)C1` (stereo not drawn), which Potency is on record?
**A.** inconclusive [inhibitor, single point]

**Q.** Which Potency does the source give for `CC(C)Sc1nnc([C@H](Cc2ccccc2)NC(=O)OC(C)(C)C)o1` here?
**A.** inactive

**Q.** For `COc1cc(F)cc(-c2ccc3c(c2)c(C#Cc2ccsc2)c(-c2cc(OC)cc(OC)c2)n3C)c1`, which Potency is on record?
**A.** active: 14.6 µM

**Q.** For `O=C(/C=C/c1ccccc1)C1=C(O)C(=O)N(CCO)C1c1ccc2c(c1)OCO2` (stereo not drawn), which Potency is on record?
**A.** inactive

**Q.** Which Potency does the source give for `CCCCCc1c(-c2cccc(Cl)c2)ncn1CCc1ccccc1OC` here?
**A.** active: 23.1 µM

**Q.** Which Potency does the source give for `Cc1cc(NC(=O)c2oc3ccccc3c2C)ccc1-n1cnnn1` here?
**A.** active: 23.1 µM

**Q.** With `O=C(NC1(O)C(=O)c2ccccc2C1=O)c1ccc(C(F)(F)F)cc1` as the molecule, how does the Potency read?
**A.** inconclusive [inhibitor, single point]

**Q.** For `CCCCOc1ccc(C(=O)Nc2ccc(S(=O)(=O)Nc3nc(C)cc(C)n3)cc2)cc1`, which Potency is on record?
**A.** inconclusive [inhibitor, single point]

**Q.** Which Potency does the source give for `CCN(CC)S(=O)(=O)c1cc(NS(=O)(=O)c2cccs2)ccc1C` here?
**A.** active: 5.8 µM

**Q.** For `CC1CCc2nc3ncn(Cc4ccc(Cl)cc4)c(=O)c3cc2C1` (stereo not drawn), which Potency is on record?
**A.** active: 23.1 µM

**Q.** For `Nn1c(SCC(=O)Nc2ccc(F)cc2)nnc1-c1cccnc1`, which Potency is on record?
**A.** inactive

**Q.** With `COc1ccc(-n2cnc3c(sc4nc(N5CCOCC5)c5c(c43)CCCC5)c2=O)cc1` as the molecule, how does the Potency read?
**A.** active: 23.1 µM

**Q.** For `COC(=O)/C=C/c1oc2ccccc2c1C`, which Potency is on record?
**A.** inactive

**Q.** With `Cc1cc(N2CCOCC2)nc2ccc(NC(=O)CCC(=O)N3CCN(c4ccccc4F)CC3)cc12` as the molecule, how does the Potency read?
**A.** active: 14.6 µM

**Q.** Which Potency does the source give for `CC(C)C[C@H](NC(=O)c1nc[nH]c1C(=O)N1CCc2ccccc2C1)C(=O)OC(C)(C)C` here?
**A.** inconclusive [inhibitor, single point]

**Q.** Which Potency does the source give for `CCOC(=O)N1CCN(C(=O)CSc2ccc(-c3ccc(OC)c(OC)c3)nn2)CC1` here?
**A.** inconclusive [inhibitor, single point]

**Q.** Which Potency does the source give for `CCOC(=O)C1(CCc2ccccc2)CCN(C2Cc3ccccc3C2)CC1` here?
**A.** inconclusive [inhibitor, single point]

**Q.** With `O=C(CSc1nnc(-c2ccc(O)cc2)n1Cc1ccco1)c1cccs1` as the molecule, how does the Potency read?
**A.** inconclusive [inhibitor, partial curve]

**Q.** With `O=C(CNc1ccccc1)N/N=C/c1cc([N+](=O)[O-])ccc1N1CCCC1` as the molecule, how does the Potency read?
**A.** inconclusive [inhibitor, partial curve]

**Q.** Which Potency does the source give for `N#Cc1ccccc1S(=O)(=O)N1CCN(C(=O)CN2CCCC2c2cccs2)CC1` (stereo not drawn) here?
**A.** inconclusive [inhibitor, single point]

**Q.** Which Potency does the source give for `CCCC(=O)Nc1cc(S(=O)(=O)N(CC)CC)ccc1Cl` here?
**A.** inconclusive [inhibitor, single point]

**Q.** Which Potency does the source give for `CCOC(=O)C1CCN(C(=O)c2sc3nc(-c4ccc(F)cc4)cn3c2C)CC1` here?
**A.** inconclusive [inhibitor, partial curve, poor fit]

**Q.** Which Potency does the source give for `Cc1ccc(C(=O)N(CN2CCCC2=O)c2ccc(F)cc2)cc1` here?
**A.** inactive

**Q.** With `O=C(Cc1nc2ccccc2[nH]1)c1cccc([N+](=O)[O-])c1` as the molecule, how does the Potency read?
**A.** active: 3.66 µM

**Q.** For `Oc1[nH]c2ccccc2c1N=Nc1c(F)c(F)c(F)c(F)c1F`, which Potency is on record?
**A.** active: 13 µM

**Q.** Which activity change, negative = growth inhibition does the source give for `C=CCOc1ccc(C2C(C(=O)c3ccco3)=C(O)C(=O)N2Cc2cccnc2)cc1` (stereo not drawn) here?
**A.** inconclusive: -31.5% [inhibitor]

**Q.** Which Potency does the source give for `CCN(CC)C(=O)C(=O)c1cn(CC(=O)N2CCc3ccccc3C2)c2ccccc12` here?
**A.** inconclusive [inhibitor, single point]

**Q.** Which Potency does the source give for `Cc1cc(S(=O)(=O)N2CCN(c3ccc(F)cc3)CC2)c(C)s1` here?
**A.** inconclusive [inhibitor, single point]

**Q.** With `CCc1ccc2ncc(S(=O)(=O)c3ccc(Cl)cc3)c(N3CCN(CC)CC3)c2c1` as the molecule, how does the Potency read?
**A.** active: 16.4 µM

**Q.** For `O=C(Nc1cccc2c1CCCC2)c1cc([N+](=O)[O-])ccc1Cl`, which Potency is on record?
**A.** active: 25.9 µM

**Q.** With `COc1ccccc1NC(=S)NN=C(C)c1ccccn1` as the molecule, how does the Potency read?
**A.** active: 0.146 µM

**Q.** Which Potency does the source give for `O=C(O)CC1(CC(=O)Nc2ccc3c(c2)C(=O)OC3)CCCCC1` here?
**A.** inactive

**Q.** With `COCCNC(=O)/C(C#N)=C/c1cccc(OCc2ccccc2)c1` as the molecule, how does the Potency read?
**A.** inconclusive [inhibitor, single point]

**Q.** With `CCC(C)n1c(-c2cccc(S(=O)(=O)N(CC)CC)c2)n[nH]c1=S` (stereo not drawn) as the molecule, how does the Potency read?
**A.** inconclusive [inhibitor, single point]

**Q.** With `Cc1cccc(OCCn2nnc3ccccc32)c1C` as the molecule, how does the Potency read?
**A.** inconclusive [inhibitor, single point]

**Q.** For `Cc1nc2ccccc2n1CCc1nc2c3ccccc3nc(SCC(=O)Nc3cccc(C(F)(F)F)c3)n2n1`, which Potency is on record?
**A.** inconclusive [inhibitor, single point]

**Q.** For `COC(=O)c1c(NC(NC(=O)c2ccccc2)(C(F)(F)F)C(F)(F)F)sc2c1CCN(C)C2`, which Potency is on record?
**A.** inconclusive [inhibitor, single point]

**Q.** With `CCOC(=O)N1N=C(C)CC1(O)c1ccc(Cl)cc1` (stereo not drawn) as the molecule, how does the Potency read?
**A.** inactive

**Q.** With `CC(C)Oc1ccc(-c2cc(C(=O)NCCN3CCOCC3)c3ccccc3n2)cc1` as the molecule, how does the Potency read?
**A.** inconclusive [inhibitor, single point]

**Q.** Which Potency does the source give for `Cc1cc(C)cc(-n2c(SCC(=O)N3CCCC3)nc3c([nH]c4ccccc43)c2=O)c1` here?
**A.** inactive

**Q.** With `Cc1nc(Nc2ccc(Cl)c(Cl)c2)sc1C(=O)Nc1ccccc1` as the molecule, how does the Potency read?
**A.** active: 14.6 µM

**Q.** With `COc1ccc(Cn2nnnc2C(c2ccccn2)N2CCN(c3ccc(O)cc3)CC2)cc1` (stereo not drawn) as the molecule, how does the activity change, negative = growth inhibition read?
**A.** inconclusive: -30.9% [inhibitor]

**Q.** For `COc1ccc2c(Sc3ccccc3)c(C(=O)NCC(C)c3ccccc3)[nH]c2c1` (stereo not drawn), which Potency is on record?
**A.** inconclusive [inhibitor, single point]

**Q.** Which Potency does the source give for `CC(C)(C)N(Cc1ccccc1)C(=O)COC(=O)CNC(=O)c1ccco1` here?
**A.** inconclusive [inhibitor, single point]

**Q.** With `CC(=O)COc1ccc2cc(-c3ccccc3)c(=O)oc2c1` as the molecule, how does the Potency read?
**A.** inconclusive [inhibitor, single point]

**Q.** With `COc1ccc(Br)cc1Cn1nnc(C(=O)Nc2ccc(C)cc2C)c1N` as the molecule, how does the Potency read?
**A.** inconclusive [inhibitor, single point]

**Q.** With `COc1ccc(S(=O)(=O)N2CCOCC2)cc1NC(=O)CCNC(=O)c1ccc(Br)cc1` as the molecule, how does the Potency read?
**A.** inconclusive [inhibitor, single point]

**Q.** Which Potency does the source give for `Cc1ccc(NC(=S)N(CCCN2CCCC(C)C2)Cc2ccco2)cc1C` (stereo not drawn) here?
**A.** inconclusive [inhibitor, partial curve, poor fit]

**Q.** For `O=C(NCCCc1ccncc1)C1CCC(=O)N(Cc2ccc(Cl)cc2)C1` (stereo not drawn), which Potency is on record?
**A.** inactive

**Q.** For `O=C(NCCc1ccc(F)cc1)c1cccc2c1C(=O)c1ccc(N3CCC(Cc4ccccc4)CC3)cc1S2(=O)=O`, which Potency is on record?
**A.** inconclusive [inhibitor, partial curve]

**Q.** Which Potency does the source give for `Cc1ccc(C)n1NC(=O)c1ccccc1Cl` here?
**A.** inconclusive [inhibitor, partial curve, poor fit]

**Q.** With `COc1cccc(OC)c1CNC(=O)C1CCC(=O)N(CC2CCCCC2)C1` (stereo not drawn) as the molecule, how does the activity change, negative = growth inhibition read?
**A.** inconclusive: -33.5% [inhibitor]

**Q.** For `Cn1c(=O)n(-c2ccc3c(c2)OCO3)c2nc(-c3ccc(Cl)cc3)nc(C(N)=O)c21`, which Potency is on record?
**A.** inconclusive [inhibitor, single point]

**Q.** With `CCc1ccc(NC(=O)C[n+]2cc(-c3ccc(C)cc3)n3c2CCC3)cc1` as the molecule, how does the Potency read?
**A.** active: 3.66 µM

**Q.** For `CCc1ccc(NC(=O)CCC(=O)c2ccccc2)cc1`, which Potency is on record?
**A.** inactive

**Q.** With `O=C(COc1ccc2ccccc2c1)N1CCN(C(=O)c2ccc([N+](=O)[O-])cc2)CC1` as the molecule, how does the Potency read?
**A.** inconclusive [inhibitor, single point]

**Q.** For `COc1ccccc1OCCNc1nc2c(c(=O)n(C)c(=O)n2C)n1C`, which Potency is on record?
**A.** active: 18.4 µM

**Q.** With `C[C@H](O)[C@@H]1CN2CCc3c([nH]c4ccccc34)[C@@H]2C[C@@H]1N(C)C(=S)Nc1ccc(C#N)cc1` as the molecule, how does the Potency read?
**A.** inconclusive [inhibitor, single point]

**Q.** For `CC(NC(=O)C(c1ccccc1)c1ccccc1)C(=O)N1CCCCC1` (stereo not drawn), which Potency is on record?
**A.** inactive

**Q.** With `Cc1nc(C)n(CC(=O)NCC2Cc3cc(-c4ccsc4)cc(Cl)c3O2)n1` (stereo not drawn) as the molecule, how does the Potency read?
**A.** inconclusive [inhibitor, single point]

**Q.** Which Potency does the source give for `O=C(NCCC1=CCCCC1)C(=O)NCC1OCCCN1S(=O)(=O)c1ccccc1` (stereo not drawn) here?
**A.** inconclusive [inhibitor, single point]

**Q.** For `CC(=O)NC(CC(=O)NNC(=O)c1cc2ccccc2cc1O)c1ccccc1` (stereo not drawn), which Potency is on record?
**A.** inconclusive [inhibitor, single point]

**Q.** For `CC(C)CC1CC(C)(c2csc(NNC(=O)c3ccccc3)n2)OC1=O` (stereo not drawn), which Potency is on record?
**A.** inconclusive [inhibitor, partial curve, poor fit]

**Q.** With `CC(O)C(NS(=O)(=O)c1ccc(Cl)cc1)C(=O)OCCOc1ccc(F)cc1` (stereo not drawn) as the molecule, how does the Potency read?
**A.** inconclusive [inhibitor, single point]

**Q.** For `CCCc1c(C)nc2ccccc2c1SCCC#N`, which Potency is on record?
**A.** inconclusive [inhibitor, partial curve, poor fit]

**Q.** With `Cc1ccc(OCC(=O)Nc2ccc(-c3nc4ncccc4o3)cc2)c(C)c1` as the molecule, how does the Potency read?
**A.** inconclusive [inhibitor, partial curve]

**Q.** For `OC(CSc1ccccc1)CN1CCN(c2ccc(Cl)cc2)CC1` (stereo not drawn), which Potency is on record?
**A.** active: 20.6 µM

**Q.** With `COc1cccc(N(C(=O)c2snc(C(N)=O)c2N)C(C(=O)NCC2CCCO2)c2c[nH]c3ccccc23)c1` (stereo not drawn) as the molecule, how does the Potency read?
**A.** inconclusive [inhibitor, partial curve, poor fit]
